Test results from the BET-seq Pho4 binding data (Le et al. 2018).
The list shows a part of the results. Values were computed here from the reads of four pooled replicates and scatter widely.

Biological target: T1, Pho4 (S. cerevisiae) (UniProt P07270)
T1 sequence: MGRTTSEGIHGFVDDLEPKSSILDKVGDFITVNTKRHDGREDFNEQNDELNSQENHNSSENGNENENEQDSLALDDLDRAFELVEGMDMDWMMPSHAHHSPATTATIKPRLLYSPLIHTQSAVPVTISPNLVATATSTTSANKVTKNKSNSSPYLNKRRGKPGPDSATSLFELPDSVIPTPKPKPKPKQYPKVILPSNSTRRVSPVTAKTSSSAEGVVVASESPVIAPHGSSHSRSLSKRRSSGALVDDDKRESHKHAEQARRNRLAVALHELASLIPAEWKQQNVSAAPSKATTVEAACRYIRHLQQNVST
Experiment: relative binding free energy (BET-seq); higher = weaker binding
Conditions: reference: library average

Relative binding free energy, -0.14 kcal/mol:
CGGAGCACGTGGTTGA
AAGGGCACGTGGTTTC
GTGGACACGTGGGGCC
TGGAGCACGTGTCGCT

Relative binding free energy, -0.26 kcal/mol:
TATGGCACGTGGGAAG
GCGGGCACGTGCGAGG

Relative binding free energy, 0.15 kcal/mol:
TTGGTCACGTGGTGCG
AGTTACACGTGGAAAG

Relative binding free energy, -0.3 kcal/mol:
TTTGGCACGTGGTGCA

Relative binding free energy, 0.12 kcal/mol:
AATGGCACGTGAATAT
TTATTCACGTGCTTGT

Relative binding free energy, -0.18 kcal/mol:
ACATGCACGTGGGGAT

Relative binding free energy, 0.13 kcal/mol:
TATTGCACGTGTAGAA
GTTTCCACGTGGTTGC
TTTGTCACGTGGCCGG

Relative binding free energy, 0.41 kcal/mol:
GGATTCACGTGTTGGT

Relative binding free energy, -0.23 kcal/mol:
CGTGACACGTGGTGCG

Relative binding free energy, -0.13 kcal/mol:
TTTCGCACGTGCGTTG
ATTAACACGTGTGTAG
ATTTGCACGTGGGAGT
CTTGGCACGTGTGTAA

Relative binding free energy, 0.38 kcal/mol:
AGAGTCACGTGAGGGC
GTGTTCACGTGCTCAT
ATTAACACGTGAGGCG

Relative binding free energy, -0.01 kcal/mol:
GTGAACACGTGGGAGT
GGGAACACGTGGGGAT
TGCGTCACGTGGTATT
ATGTCCACGTGGAGGA

Relative binding free energy, 0.3 kcal/mol:
AGGTTCACGTGGTTGG
TTGTTCACGTGGACGC

Relative binding free energy, -0.04 kcal/mol:
GTCGGCACGTGGGAAA
ATGAGCACGTGGTTTG
GGGGCCACGTGGAGGG
AGGGTCACGTGCGTGT

Relative binding free energy, -0.15 kcal/mol:
GAGAGCACGTGTTGTA
GGTACCACGTGTGGTA

Relative binding free energy, -0.32 kcal/mol:
TCTGCCACGTGGGGTT

Relative binding free energy, -0.21 kcal/mol:
TAGGGCACGTGGGCAA

Relative binding free energy, 0.27 kcal/mol:
CTTTACACGTGTGAGT
TTCCTCACGTGTGGTT

Relative binding free energy, 0.07 kcal/mol:
TTATACACGTGTTACA
ATCGGCACGTGGAGGC
ATGGTCACGTGTCAAG
GGTGTCACGTGGCAGC
ATAGTCACGTGGTTCT

Relative binding free energy, 0 kcal/mol:
AGTCTCACGTGTTTAT
TGTGTCACGTGGAGCG
AAGAACACGTGTGTGT
TTTCACACGTGTGGGA

Relative binding free energy, 0.34 kcal/mol:
ATGTTCACGTGGACGG

Relative binding free energy, 0.25 kcal/mol:
GTTATCACGTGTTGTG
TGGGTCACGTGAGTCT
AATGTCACGTGAGATT
ATTTTCACGTGGTCTA
TTCTACACGTGTATGA
ATTTTCACGTGCGGGG
ATCATCACGTGTTAAT

Relative binding free energy, 0.01 kcal/mol:
GTGACCACGTGTGGAG
TCATACACGTGGGCTT
TGTCGCACGTGAGTGG

Relative binding free energy, 0.08 kcal/mol:
AAGGCCACGTGATAGG
ACTATCACGTGTTTGT
CAAGTCACGTGGGATT
ATTGTCACGTGGCATA

Relative binding free energy, 0.2 kcal/mol:
TGATGCACGTGAGGCG
GATATCACGTGGTGCG
CTGTTCACGTGGCTTG

Relative binding free energy, -0.2 kcal/mol:
TCGGGCACGTGTCAGG
GTAGGCACGTGGGCAC
CAATGCACGTGGGGTT

Relative binding free energy, 0.06 kcal/mol:
TCTGTCACGTGGCGTT
GCGGCCACGTGATGTG
TGGGGCACGTGTAGTC
TTTTGCACGTGTGATA
GTTGTCACGTGTCGAT
TTGCTCACGTGGTCTG
TGTTCCACGTGTAATT

Relative binding free energy, 0.28 kcal/mol:
GTTAACACGTGAGATA
TTCCTCACGTGGTTAG
GTATTCACGTGTATAA

Relative binding free energy, -0.09 kcal/mol:
TGTCGCACGTGATCGG

Relative binding free energy, 0.21 kcal/mol:
GGTTGCACGTGATGGT
TTCAACACGTGAGGTT
TAGAGCACGTGAGTTA

Relative binding free energy, 0.37 kcal/mol:
AAGTTCACGTGAGTTT
GGGCACACGTGAGGGA

Relative binding free energy, 0.05 kcal/mol:
GCATACACGTGTTGGT
ATTATCACGTGGCTTA
TATGTCACGTGTTGGC
CGTTACACGTGTTGTG

Relative binding free energy, -0.16 kcal/mol:
TTGGGCACGTGTTCAA
TAGACCACGTGGGTGG
AGGCGCACGTGGTAAG

Relative binding free energy, 0.03 kcal/mol:
CGGGGCACGTGTAGAG
TGTCGCACGTGACGGG
TTTGACACGTGTTGAA

Relative binding free energy, -0.24 kcal/mol:
CTAAGCACGTGTTGTG
ATGGCCACGTGGTTGT

Relative binding free energy, 0.18 kcal/mol:
TTGAACACGTGTAAGG
ATGAGCACGTGAGTCG
GTCATCACGTGTTAGT
GTTGGCACGTGTACGC
TGGATCACGTGTTAAT
ATGATCACGTGATTGA

Relative binding free energy, -0.27 kcal/mol:
TGTGCCACGTGGGCAT

Relative binding free energy, 0.26 kcal/mol:
AGGTTCACGTGTATGG
TGATTCACGTGATACG

Relative binding free energy, -0.11 kcal/mol:
TCGGTCACGTGGTCTG
TCGGACACGTGGGGCT
TTGACCACGTGGTTGG

Relative binding free energy, 0.1 kcal/mol:
GATGTCACGTGGGAAA
ATTAGCACGTGCAATG
AATGTCACGTGGTATG
TACAGCACGTGTGAGT
TCTGTCACGTGTCGTT
GGTGACACGTGTAAAG
AGTCACACGTGAGTGT

Relative binding free energy, 0.42 kcal/mol:
CGTATCACGTGAGAGT
GAATTCACGTGGAAGG
GAATTCACGTGCATTT

Relative binding free energy, 0.22 kcal/mol:
ACGTTCACGTGGGAGT
TTGTACACGTGATGTA
AGTCTCACGTGGAGGT
CGGGTCACGTGAGTAT
GAGGGCACGTGGAAAT

Relative binding free energy, 0.11 kcal/mol:
CTTTGCACGTGGATTG
CGCGTCACGTGATTGG
GAATGCACGTGCATGG
TGTTACACGTGTTAGA

Relative binding free energy, 0.16 kcal/mol:
GGTGGCACGTGTGGAA
CTTTTCACGTGCGGTT

Relative binding free energy, 0.31 kcal/mol:
GAAGTCACGTGTAAAG
GTGTTCACGTGGCAGG

Relative binding free energy, -0.06 kcal/mol:
TAGGGCACGTGTTAGA
TTGTGCACGTGTATGT
CGAGGCACGTGGTAGA
CTTTGCACGTGGAGTA
TCGGGCACGTGGTATT

Relative binding free energy, 0.33 kcal/mol:
AGCGTCACGTGATTAG

Relative binding free energy, 0.24 kcal/mol:
GCCTTCACGTGGTGTT
TAGATCACGTGTTTCG
ATCGACACGTGTCGGT

Relative binding free energy, -0.17 kcal/mol:
TGGGGCACGTGGTGCT
CGTAACACGTGCGGGG
GAGGGCACGTGGGCAG

Relative binding free energy, 0.35 kcal/mol:
GAGTTCACGTGCATTT

Relative binding free energy, -0.03 kcal/mol:
TACTGCACGTGTTGTG
GTTTGCACGTGGGACT
TTCCACACGTGGTGGT
TCTGTCACGTGGGCAG
TTGCGCACGTGTGGAT
GGCCGCACGTGCGTGT
AGAGTCACGTGGGGGC
TGGGCCACGTGGTTGG

Relative binding free energy, 0.29 kcal/mol:
GGTCTCACGTGCGCGG
ATGGACACGTGAAGAG

Relative binding free energy, 0.04 kcal/mol:
AGTGTCACGTGCTAAG
GGTGACACGTGTTAAG
TCGGCCACGTGTGGAG

Relative binding free energy, -0.12 kcal/mol:
GGATGCACGTGGCGGT
TTGGCCACGTGTTGGA
TGTGTCACGTGGTACA
TAGGGCACGTGCGTTC

Relative binding free energy, 0.4 kcal/mol:
TGATTCACGTGAAAGT
TTGTTCACGTGATGAA

Relative binding free energy, -0.02 kcal/mol:
TTTGACACGTGGAGAA
AGAGTCACGTGTTGCT
TAGTACACGTGGTGTG
GGAGGCACGTGTGGTC
GGTTCCACGTGGTATA
ATGTACACGTGGTGCT
AGTCGCACGTGGAGGT

Relative binding free energy, -0.1 kcal/mol:
GGTACCACGTGGGCAG
AGTGACACGTGCGTGG
ATTGGCACGTGCAGGG
TAATGCACGTGGTGAC
TTAAACACGTGGTTGT
GTCTCCACGTGGGGGG

Relative binding free energy, -0.07 kcal/mol:
GGATGCACGTGCTGGT
ACTAGCACGTGTGGTT
GTTTGCACGTGTTTTC
CCGTGCACGTGGTAGG
TTGGACACGTGGGGTG
CTAGACACGTGTGTGG
CGGGTCACGTGGTGCT
GGGAGCACGTGCGGTT

Relative binding free energy, -0.22 kcal/mol:
TTCGGCACGTGGGGAT
AAGGGCACGTGGCGTC
AGATCCACGTGGGGGG

Relative binding free energy, 0.02 kcal/mol:
TTGTGCACGTGGTGAA
CAGGTCACGTGGGGAT
AAGTGCACGTGTTCGT
AGTGCCACGTGTGTTG
TAATGCACGTGTTGGT

Relative binding free energy, 0.23 kcal/mol:
GGTGTCACGTGTGTAG
GTATTCACGTGGTCCG
GGCGTCACGTGAGCGG
ACGTTCACGTGAGTGT
GTCGTCACGTGTTGTA

Relative binding free energy, -0.05 kcal/mol:
GCTAGCACGTGTGGAG
CTAGACACGTGGTGTT
ATGGGCACGTGTCGGC
TAGAACACGTGGGATG
TGGGACACGTGGTAGA
TGTGGCACGTGTGGAT
AATGGCACGTGTATAG
TTATACACGTGGTTTA

Relative binding free energy, 0.19 kcal/mol:
GTACACACGTGTGGCG

Relative binding free energy, 0.09 kcal/mol:
GAATACACGTGTTTTT
TTCGTCACGTGTGGCG
TTAGTCACGTGGAGTT
GGTAGCACGTGAGAAG
GGCGACACGTGGGGGA
TGAGCCACGTGAGGTA
AGTCGCACGTGTAGGC

Relative binding free energy, 0.14 kcal/mol:
ATTGGCACGTGAATTT
CGAATCACGTGGTGGG
TCGGTCACGTGTTGCT
TTTGCCACGTGAATTG
TAGGGCACGTGACGAG
ATTGTCACGTGTTCGG
ACGGACACGTGTGTGA
GTTTGCACGTGTTGCA

Relative binding free energy, -0.08 kcal/mol:
TGGGACACGTGGTAAG
ATTGACACGTGTGTCG
TGGGACACGTGCGGGC
TGCGCCACGTGATGGG
AAGAACACGTGGAGGG
CGCTGCACGTGTTGTG

Relative binding free energy, -0.19 kcal/mol:
GGAAGCACGTGTGTAG
